Among the data in article PMC7722926 are binding values, retold here.

Sequences of proteins named here, by UniProt entry; tags and fusion partners are left off. A change or cut given only in a name is not applied to a line headed by its entry.
UniProt Q92993: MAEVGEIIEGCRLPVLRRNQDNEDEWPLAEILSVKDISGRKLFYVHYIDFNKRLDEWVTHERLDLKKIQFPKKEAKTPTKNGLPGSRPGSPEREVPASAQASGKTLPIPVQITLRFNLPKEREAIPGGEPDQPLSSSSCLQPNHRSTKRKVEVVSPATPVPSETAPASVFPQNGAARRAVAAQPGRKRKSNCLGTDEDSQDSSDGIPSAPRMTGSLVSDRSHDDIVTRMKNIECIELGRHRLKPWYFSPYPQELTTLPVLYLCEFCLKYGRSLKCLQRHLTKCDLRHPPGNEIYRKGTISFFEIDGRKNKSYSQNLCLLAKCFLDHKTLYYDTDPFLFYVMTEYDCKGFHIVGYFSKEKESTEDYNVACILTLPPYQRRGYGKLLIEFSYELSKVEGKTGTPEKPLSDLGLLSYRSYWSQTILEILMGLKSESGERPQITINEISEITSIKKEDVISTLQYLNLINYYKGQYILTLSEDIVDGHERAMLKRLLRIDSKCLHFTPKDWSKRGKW
UniProt P16220: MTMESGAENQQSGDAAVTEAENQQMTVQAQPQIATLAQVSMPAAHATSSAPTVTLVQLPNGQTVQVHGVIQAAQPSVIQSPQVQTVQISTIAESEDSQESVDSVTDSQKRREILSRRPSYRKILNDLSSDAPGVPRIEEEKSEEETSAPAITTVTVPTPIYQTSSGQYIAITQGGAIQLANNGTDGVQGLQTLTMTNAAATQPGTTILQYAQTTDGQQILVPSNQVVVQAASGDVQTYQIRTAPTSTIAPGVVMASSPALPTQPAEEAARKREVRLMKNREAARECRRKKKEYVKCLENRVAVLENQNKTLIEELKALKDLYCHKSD
UniProt P19484: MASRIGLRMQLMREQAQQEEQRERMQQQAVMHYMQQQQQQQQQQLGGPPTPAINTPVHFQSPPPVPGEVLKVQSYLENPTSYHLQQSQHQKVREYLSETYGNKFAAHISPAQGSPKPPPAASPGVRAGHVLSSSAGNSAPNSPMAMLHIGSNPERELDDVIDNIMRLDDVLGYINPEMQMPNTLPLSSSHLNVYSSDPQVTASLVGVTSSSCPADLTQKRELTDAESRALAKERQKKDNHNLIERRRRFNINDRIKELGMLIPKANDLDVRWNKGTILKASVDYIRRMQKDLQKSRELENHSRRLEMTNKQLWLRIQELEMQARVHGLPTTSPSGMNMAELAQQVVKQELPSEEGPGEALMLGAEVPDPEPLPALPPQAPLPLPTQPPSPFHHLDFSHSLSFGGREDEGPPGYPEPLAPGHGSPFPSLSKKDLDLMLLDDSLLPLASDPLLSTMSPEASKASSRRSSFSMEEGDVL
UniProt Q9Y265: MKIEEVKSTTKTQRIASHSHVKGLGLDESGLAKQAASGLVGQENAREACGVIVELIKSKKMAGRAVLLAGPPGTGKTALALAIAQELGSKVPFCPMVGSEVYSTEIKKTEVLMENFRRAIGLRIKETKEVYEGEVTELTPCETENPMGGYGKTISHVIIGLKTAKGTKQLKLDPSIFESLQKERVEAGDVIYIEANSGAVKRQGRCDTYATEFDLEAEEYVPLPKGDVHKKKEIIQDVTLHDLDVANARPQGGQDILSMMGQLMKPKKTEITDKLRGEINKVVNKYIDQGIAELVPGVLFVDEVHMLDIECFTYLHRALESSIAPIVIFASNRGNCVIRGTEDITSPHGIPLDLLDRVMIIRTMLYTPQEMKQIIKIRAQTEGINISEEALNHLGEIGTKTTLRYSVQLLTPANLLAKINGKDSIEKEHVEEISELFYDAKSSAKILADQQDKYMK
UniProt P60122: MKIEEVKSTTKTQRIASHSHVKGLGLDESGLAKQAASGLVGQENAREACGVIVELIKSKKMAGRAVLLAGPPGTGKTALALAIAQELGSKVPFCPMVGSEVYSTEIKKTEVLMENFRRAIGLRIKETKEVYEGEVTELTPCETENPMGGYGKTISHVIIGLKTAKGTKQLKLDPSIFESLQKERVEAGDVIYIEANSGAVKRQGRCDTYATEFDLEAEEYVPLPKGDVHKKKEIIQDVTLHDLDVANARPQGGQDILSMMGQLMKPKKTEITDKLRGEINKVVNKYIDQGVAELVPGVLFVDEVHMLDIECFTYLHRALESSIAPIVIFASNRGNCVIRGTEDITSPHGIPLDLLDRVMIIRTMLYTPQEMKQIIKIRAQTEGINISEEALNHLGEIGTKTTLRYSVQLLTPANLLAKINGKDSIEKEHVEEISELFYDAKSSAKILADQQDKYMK

In experiment [1] the target is FOXO3a (in MEFs) (mouse (endogenous in MEFs)) (UniProt Q9WVH4). As to the kind of experiment: co-IP; MEFs (Pontin WT, RK or RA-expressing; WT or Carm1-/-), whole lysates or nuclear extracts, glucose starvation; also after CARM1 inhibitors EZM2302 (100 nM) and EPZ025654 (100 nM) for 96 h.
Experiment [2] has as its target Tip60 histone acetyltransferase (UniProt Q92993). Kind of experiment: co-IP; FOXO3a and Tip60 in the absence or presence of Pontin (Fig. 6f); cells not given.
For experiment [3] the target is unchanged. Kind of experiment: co-IP; Tip60 and Pontin WT or RK mutants in the absence or presence of glucose starvation (Fig. 6g); cells not given.
Experiment [4] addresses FOXO3a F640L mutant (UniProt O43524). As to the kind of experiment: co-IP; Pontin with FOXO3a WT, truncated proteins or mutants following glucose starvation (Fig. 5j, Supplementary Fig. 7a, 7b, 7e); cells not given.
Experiment [5] deals with T1, CR3 domain of FOXO3a (610–650 amino acids) (UniProt O43524).
T1 sequence: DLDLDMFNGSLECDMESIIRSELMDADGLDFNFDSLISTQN
The experiment is described as above.

In experiment [6] the target is FOXO3a 3A (M624A, I627A, and I628A) mutant (in cells) (UniProt O43524). The experiment is described as above.
Experiment [7] deals with FOXO3a F642L mutant (UniProt O43524). The description is as above.
For experiment [8], the target named is T2, FOXO3a C terminus (418–673 a.a.), truncated protein in cells (UniProt O43524).
T2 sequence: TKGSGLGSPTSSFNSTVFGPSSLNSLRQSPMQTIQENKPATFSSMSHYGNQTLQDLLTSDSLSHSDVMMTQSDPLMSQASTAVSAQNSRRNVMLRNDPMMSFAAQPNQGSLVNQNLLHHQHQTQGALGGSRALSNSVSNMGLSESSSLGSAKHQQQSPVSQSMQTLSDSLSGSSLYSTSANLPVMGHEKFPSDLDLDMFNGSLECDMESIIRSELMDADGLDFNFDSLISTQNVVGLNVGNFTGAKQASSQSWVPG
Described as above.

For experiment [9], the target named is CREB (UniProt P16220). Kind of experiment: co-IP; Pontin and various autophagy-related transcription factors upon glucose starvation (Fig. 5c); cells not given.
In experiment [10] the target is T3, PPARα (UniProt Q07869).
T3 sequence: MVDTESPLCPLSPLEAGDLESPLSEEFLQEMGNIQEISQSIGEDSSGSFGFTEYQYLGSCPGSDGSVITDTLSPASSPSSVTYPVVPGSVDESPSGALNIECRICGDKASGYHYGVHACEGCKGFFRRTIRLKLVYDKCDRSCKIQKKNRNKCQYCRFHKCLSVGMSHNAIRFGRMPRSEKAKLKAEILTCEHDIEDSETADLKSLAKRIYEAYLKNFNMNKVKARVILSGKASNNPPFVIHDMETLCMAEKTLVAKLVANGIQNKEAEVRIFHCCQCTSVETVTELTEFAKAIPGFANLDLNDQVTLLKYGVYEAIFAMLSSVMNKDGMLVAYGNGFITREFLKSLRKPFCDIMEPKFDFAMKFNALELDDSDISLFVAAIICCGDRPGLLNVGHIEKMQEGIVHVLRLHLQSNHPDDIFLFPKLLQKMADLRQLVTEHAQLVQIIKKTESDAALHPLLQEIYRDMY
Described as above.

The target of experiment [11] is TFEB (transcription factor EB) (UniProt P19484). Described as above.
Experiment [12] deals with T4, Flag-tagged CARM1 (coactivator-associated arginine methyltransferase 1) (UniProt Q86X55).
T4 sequence: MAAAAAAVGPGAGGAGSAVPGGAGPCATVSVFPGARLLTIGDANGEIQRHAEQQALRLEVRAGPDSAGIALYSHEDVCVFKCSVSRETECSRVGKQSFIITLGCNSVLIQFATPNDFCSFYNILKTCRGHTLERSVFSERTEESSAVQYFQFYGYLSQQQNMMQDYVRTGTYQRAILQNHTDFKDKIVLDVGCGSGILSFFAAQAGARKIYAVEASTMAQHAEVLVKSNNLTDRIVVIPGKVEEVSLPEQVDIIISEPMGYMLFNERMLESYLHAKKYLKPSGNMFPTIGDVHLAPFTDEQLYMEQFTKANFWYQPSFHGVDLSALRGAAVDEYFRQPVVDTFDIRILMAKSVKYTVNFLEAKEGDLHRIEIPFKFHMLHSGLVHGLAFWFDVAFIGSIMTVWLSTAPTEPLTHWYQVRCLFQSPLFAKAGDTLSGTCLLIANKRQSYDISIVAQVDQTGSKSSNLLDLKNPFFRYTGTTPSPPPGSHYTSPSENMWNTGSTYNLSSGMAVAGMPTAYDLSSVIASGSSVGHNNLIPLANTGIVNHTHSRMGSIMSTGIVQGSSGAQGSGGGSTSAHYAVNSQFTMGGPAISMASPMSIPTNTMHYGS
As to the kind of experiment: co-IP; immunoblot of the eluate of the Flag-CARM1 affinity purification from HEK293T cells. On the technique in general: Immunoblotting shows a protein as a band on a membrane.

Experiment [13] concerns the target T5, CARM1 (endogenous, HeLa) (human (endogenous in HeLa)) (UniProt Q86X55).
T5 sequence: T4 sequence
As to the kind of experiment: co-IP; endogenous proteins in HeLa cells, glucose starvation for 18 h.

Experiment [14] addresses T6, glutathione S-transferase (GST)-tagged CARM1 (UniProt Q86X55).
T6 sequence: T4 sequence
Kind of experiment: pull-down; GST-CARM1 with in vitro translated Pontin or Reptin; 125 mM NaCl, 20 mM Tris pH 7.5, 10% glycerol, 0.1% NP-40, 0.5 mM DTT; only the target purified.

These are yes or no findings as the source states them, for the method shown. In cells and extracts the contact can be indirect. Some binding calls cover weakened binding; strength is not graded here. For part of these data: Tags and fused reporters may be left off the sequences shown.

Consider “3× Flag-Pontin R333A/R339A (RA) mutant (stably expressed in Pontin^f/f MEFs) (from UniProt Q9Y265 1-456)”, for which, in experiment [1], the binding entry is recorded as “no binding”. Still for that read-out and setting: the same measure for “3× Flag-Pontin R333K/R339K (RK) mutant (stably expressed in Pontin^f/f MEFs) (from UniProt Q9Y265 1-456)”: “no binding”. In the case of “3× Flag-Pontin WT (stably expressed in Pontin^f/f MEFs) (from UniProt Q9Y265 1-456)”, in experiment [1], the binding entry is “binds”. Regarding “FOXO3a WT (Forkhead Box O 3a; in cells, construct not stated) (from UniProt O43524 1-673)”, in experiment [2], the binding result is “binds”.

As to “Pontin (in WT MEFs) (from UniProt P60122 1-456)”, the binding entry in experiment [1] is reported as “binds”.

For “Pontin R333K/R339K (RK) mutant (construct and cells not stated) (from UniProt Q9Y265 1-456)”, the binding result in [3] is reported as “binds”. “Pontin WT (construct and cells not stated) (from UniProt Q9Y265 1-456)”: the binding entry in experiment [4] was “binds”; in experiment [5], “binds”; in experiment [6], “no binding”; in [7] it was “binds”; in experiment [8] it was “binds”; in experiment [3], “binds”. The binding entry in experiment [9], in [10] and in [11] was “no binding” throughout.

As to “Pontin chromatin-remodeling factor (endogenous, HEK293T) (from UniProt Q9Y265 1-456)”, the binding result in experiment [12] is on record as “binds”. “endogenous Pontin (HeLa) (from UniProt Q9Y265 1-456)”: the binding entry in [13] is “binds”. In the case of “in vitro translated Pontin (from UniProt Q9Y265 1-456)”, the binding result in experiment [14] is on record as “binds”.
